Results on 9 variants are retold here after the supplement of paper PMC12217912.

First the molecules themselves.
B1: TEV protease; numbered along this chain (parent)
chain: MGESLFKGPRDYNPISSSICHLTNESDGHTTSLYGIGFGPFIITNKHLFRRNNGTLVVQSLHGVFKVKDTTTLQQHLVDGRDMIIIRMPKDFPPFPQKLKFREPQREERICLVTTNFQTKSMSSMVSDTSCTFPSGDGIFWKHWIQTKDGQCGSPLVSTRDGFIVGIHSASNFTNTNNYFTSVPKNFMELLTNQEAQQWVSGWRLNADSVLWGGHKVFMVKPEEPFQPVKEATQL

This experiment covers variants of B1. Description: raw area under fraction-flipped curve 0-4 h after induction (AUC4h, not background-subtracted), DNA-recorder readout of cleavage of the substrate (dimensionless); higher = more cleavage of the substrate by the protease variant. As to conditions: temperature: 34 °C; time window: 0-4 h after rhamnose induction. The method, then:
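In vivo DNA recorder in E. coli TOP10(DE3) ΔrhaA at 34 °C. Each TEVp single-site mutant (parent TEVp 0) is paired with a single-site variant of the 7-mer TEVs (canonical ENLYFQ|S). The substrate sits between flexible linkers in a Bxb1-sfGFP-TEVs-SsrA fusion, so cleavage stabilises Bxb1 and speeds flipping of a recombination array, read by NGS. The value is the raw area under the fraction-flipped curve over 0-4 h after rhamnose induction (AUC4h), with ≥20 reads per time point. It is not background-subtracted; inactive controls average about 0.047.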

This is one part of the list. The full chains were built here from the parent and the listed change. Inactive controls read about 0.05.
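Further: Bxb1 expression induced with 0.2% (w/v) L-rhamnose at OD600 near 0.5, cultures sampled hourly, flipped fraction per protease–substrate barcode pair counted by paired-end Illumina sequencing.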

For the variant MGESLFKGPRDYNPISSSICHLTNESDGNTTSLYGIGFGPFIITNKHLFRRNNGTLVVQSLHGVFKVKDTTTLQQHLVDGRDMIIIRMPKDFPPFPQKLKFREPQREERICLVTTNFQTKSMSSMVSDTSCTFPSGDGIFWKHWIQTKDGQCGSPLVSTRDGFIVGIHSASNFTNTNNYFTSVPKNFMELLTNQEAQQWVSGWRLNADSVLWGGHKVFMVKPEEPFQPVKEATQL [H29N], the “area with substrate EALYFQS” value worked out at 0.106, the “area with substrate ECLYFQS” value was 0.108, the “area with substrate EDLYFQS” value is 0.122 and the “area with substrate EELYFQS” value stood at 0.11. The “area with substrate EFLYFQS” value amounted to 0.0992, the “area with substrate EILYFQS” value came out at 0.103, the “area with substrate EKLYFQS” value amounted to 0.135 and the “area with substrate EMLYFQS” value was 0.102. Also, the “area with substrate EPLYFQS” value was found to be 0.126, the “area with substrate EQLYFQS” value turned out to be 0.094, the “area with substrate ERLYFQS” value came to 0.105 and the “area with substrate ESLYFQS” value was determined as 0.0993. The “area with substrate ETLYFQS” value amounted to 0.102, the “area with substrate EVLYFQS” value was 0.0937, the “area with substrate EWLYFQS” value turned out to be 0.0823 and the “area with substrate EYLYFQS” value worked out at 0.11.
For MGESLFKGPRDYNPISSSICHLTNESDGCTTSLYGIGFGPFIITNKHLFRRNNGTLVVQSLHGVFKVKDTTTLQQHLVDGRDMIIIRMPKDFPPFPQKLKFREPQREERICLVTTNFQTKSMSSMVSDTSCTFPSGDGIFWKHWIQTKDGQCGSPLVSTRDGFIVGIHSASNFTNTNNYFTSVPKNFMELLTNQEAQQWVSGWRLNADSVLWGGHKVFMVKPEEPFQPVKEATQL [H29C], the “area with substrate EALYFQS” value amounted to 0.119, the “area with substrate ECLYFQS” value stood at 0.125, the “area with substrate EDLYFQS” value is 0.104 and the “area with substrate EELYFQS” value was 0.139. Besides, the “area with substrate EFLYFQS” value turned out to be 0.101, the “area with substrate EGLYFQS” value was 0.11, the “area with substrate EILYFQS” value turned out to be 0.109 and the “area with substrate EKLYFQS” value stood at 0.112. The “area with substrate ELLYFQS” value stood at 0.104, the “area with substrate EMLYFQS” value is 0.12, the “area with substrate EPLYFQS” value is 0.139 and the “area with substrate EQLYFQS” value amounted to 0.129. In addition, the “area with substrate ERLYFQS” value came out at 0.113, the “area with substrate ESLYFQS” value was determined as 0.114, the “area with substrate ETLYFQS” value came to 0.112 and the “area with substrate EVLYFQS” value came out at 0.102. The “area with substrate EWLYFQS” value worked out at 0.115 and the “area with substrate EYLYFQS” value came to 0.109.
For the variant MGESLFKGPRDYNPISSSICHLTNENDGHTTSLYGIGFGPFIITNKHLFRRNNGTLVVQSLHGVFKVKDTTTLQQHLVDGRDMIIIRMPKDFPPFPQKLKFREPQREERICLVTTNFQTKSMSSMVSDTSCTFPSGDGIFWKHWIQTKDGQCGSPLVSTRDGFIVGIHSASNFTNTNNYFTSVPKNFMELLTNQEAQQWVSGWRLNADSVLWGGHKVFMVKPEEPFQPVKEATQL [S26N], the “area with substrate EALYFQS” value was 0.0823, the “area with substrate ECLYFQS” value came out at 0.101, the “area with substrate EDLYFQS” value was determined as 0.103 and the “area with substrate EELYFQS” value came to 0.0642. The “area with substrate EGLYFQS” value was found to be 0.0982, the “area with substrate EHLYFQS” value came out at 0.0902, the “area with substrate EILYFQS” value is 0.0653 and the “area with substrate EKLYFQS” value is 0.108. Besides, the “area with substrate ELLYFQS” value stood at 0.0809, the “area with substrate EMLYFQS” value was found to be 0.0758, the “area with substrate EPLYFQS” value came out at 0.0824 and the “area with substrate EQLYFQS” value stood at 0.0903. In addition, the “area with substrate ERLYFQS” value turned out to be 0.0939, the “area with substrate ESLYFQS” value is 0.0781, the “area with substrate ETLYFQS” value is 0.0691 and the “area with substrate EVLYFQS” value is 0.0927. Moreover, the “area with substrate EWLYFQS” value is 0.0709 and the “area with substrate EYLYFQS” value is 0.0928.
On to MGESLFKGPRDYNPISSSICHLTNELDGHTTSLYGIGFGPFIITNKHLFRRNNGTLVVQSLHGVFKVKDTTTLQQHLVDGRDMIIIRMPKDFPPFPQKLKFREPQREERICLVTTNFQTKSMSSMVSDTSCTFPSGDGIFWKHWIQTKDGQCGSPLVSTRDGFIVGIHSASNFTNTNNYFTSVPKNFMELLTNQEAQQWVSGWRLNADSVLWGGHKVFMVKPEEPFQPVKEATQL [S26L], for which the “area with substrate EALYFQS” value worked out at 0.08, the “area with substrate ECLYFQS” value is 0.0711, the “area with substrate EDLYFQS” value came to 0.0787 and the “area with substrate EELYFQS” value came out at 0.0653. Also, the “area with substrate EHLYFQS” value came to 0.079, the “area with substrate EILYFQS” value turned out to be 0.0753, the “area with substrate EKLYFQS” value came to 0.083 and the “area with substrate EMLYFQS” value is 0.0744. In addition, the “area with substrate EQLYFQS” value is 0.0791, the “area with substrate ERLYFQS” value is 0.0542, the “area with substrate ESLYFQS” value is 0.0734 and the “area with substrate EVLYFQS” value is 0.0727.
Take MGESLFKGPRDYNPISSSICHLTNEWDGHTTSLYGIGFGPFIITNKHLFRRNNGTLVVQSLHGVFKVKDTTTLQQHLVDGRDMIIIRMPKDFPPFPQKLKFREPQREERICLVTTNFQTKSMSSMVSDTSCTFPSGDGIFWKHWIQTKDGQCGSPLVSTRDGFIVGIHSASNFTNTNNYFTSVPKNFMELLTNQEAQQWVSGWRLNADSVLWGGHKVFMVKPEEPFQPVKEATQL [S26W]: the “area with substrate EALYFQS” value was found to be 0.0792, the “area with substrate ECLYFQS” value was determined as 0.0793, the “area with substrate EDLYFQS” value is 0.128 and the “area with substrate EELYFQS” value amounted to 0.0906. Moreover, the “area with substrate EHLYFQS” value was 0.0747, the “area with substrate EKLYFQS” value came to 0.0537, the “area with substrate ELLYFQS” value stood at 0.0712 and the “area with substrate EMLYFQS” value was found to be 0.0832. The “area with substrate EQLYFQS” value was found to be 0.0716, the “area with substrate ESLYFQS” value worked out at 0.0719, the “area with substrate ETLYFQS” value was 0.0998 and the “area with substrate EVLYFQS” value was found to be 0.0712. The “area with substrate EWLYFQS” value stood at 0.0737.
Turning to MGESLFKGPRDYNPISSSICHLTNEPDGHTTSLYGIGFGPFIITNKHLFRRNNGTLVVQSLHGVFKVKDTTTLQQHLVDGRDMIIIRMPKDFPPFPQKLKFREPQREERICLVTTNFQTKSMSSMVSDTSCTFPSGDGIFWKHWIQTKDGQCGSPLVSTRDGFIVGIHSASNFTNTNNYFTSVPKNFMELLTNQEAQQWVSGWRLNADSVLWGGHKVFMVKPEEPFQPVKEATQL [S26P], the “area with substrate EALYFQS” value was 0.0736, the “area with substrate ECLYFQS” value was 0.0701, the “area with substrate EDLYFQS” value is 0.0702 and the “area with substrate EELYFQS” value came out at 0.0895. In addition, the “area with substrate EFLYFQS” value worked out at 0.0656, the “area with substrate EHLYFQS” value was 0.0647, the “area with substrate EILYFQS” value was found to be 0.0579 and the “area with substrate ELLYFQS” value was 0.0531. Moreover, the “area with substrate EMLYFQS” value was 0.0723, the “area with substrate EPLYFQS” value was 0.0644, the “area with substrate EQLYFQS” value was determined as 0.0769 and the “area with substrate ERLYFQS” value was 0.0631. Moreover, the “area with substrate ETLYFQS” value is 0.0604, the “area with substrate EVLYFQS” value was determined as 0.0642 and the “area with substrate EWLYFQS” value is 0.0636.
For the variant MGESLFKGPRDYNPISSSICHLTNEHDGHTTSLYGIGFGPFIITNKHLFRRNNGTLVVQSLHGVFKVKDTTTLQQHLVDGRDMIIIRMPKDFPPFPQKLKFREPQREERICLVTTNFQTKSMSSMVSDTSCTFPSGDGIFWKHWIQTKDGQCGSPLVSTRDGFIVGIHSASNFTNTNNYFTSVPKNFMELLTNQEAQQWVSGWRLNADSVLWGGHKVFMVKPEEPFQPVKEATQL [S26H], the “area with substrate EALYFQS” value worked out at 0.0692, the “area with substrate ECLYFQS” value was 0.0792, the “area with substrate EDLYFQS” value turned out to be 0.0796 and the “area with substrate EELYFQS” value was 0.0778. The “area with substrate EILYFQS” value was determined as 0.0968, the “area with substrate EKLYFQS” value stood at 0.122, the “area with substrate EMLYFQS” value was 0.0742 and the “area with substrate EQLYFQS” value was found to be 0.113. For the same variant, the “area with substrate ESLYFQS” value was 0.0594, the “area with substrate ETLYFQS” value is 0.108, the “area with substrate EWLYFQS” value is 0.0569 and the “area with substrate EYLYFQS” value came to 0.0863.
On to MGESLFKGPRDYNPISSSICHLTNESDGHLTSLYGIGFGPFIITNKHLFRRNNGTLVVQSLHGVFKVKDTTTLQQHLVDGRDMIIIRMPKDFPPFPQKLKFREPQREERICLVTTNFQTKSMSSMVSDTSCTFPSGDGIFWKHWIQTKDGQCGSPLVSTRDGFIVGIHSASNFTNTNNYFTSVPKNFMELLTNQEAQQWVSGWRLNADSVLWGGHKVFMVKPEEPFQPVKEATQL [T30L], for which the “area with substrate EALYFQS” value was 0.103, the “area with substrate ECLYFQS” value was determined as 0.0736, the “area with substrate EDLYFQS” value was 0.117 and the “area with substrate EELYFQS” value turned out to be 0.14. Further, the “area with substrate EFLYFQS” value is 0.114, the “area with substrate EGLYFQS” value is 0.0855, the “area with substrate EILYFQS” value was 0.0946 and the “area with substrate EKLYFQS” value amounted to 0.0951. Further, the “area with substrate ELLYFQS” value stood at 0.0997, the “area with substrate EMLYFQS” value amounted to 0.0987, the “area with substrate EQLYFQS” value is 0.0625 and the “area with substrate ESLYFQS” value was 0.117. For the same variant, the “area with substrate EWLYFQS” value stood at 0.0918 and the “area with substrate EYLYFQS” value stood at 0.0925.
MGESLFKGPRDYNPISSSICHLTNESDGHYTSLYGIGFGPFIITNKHLFRRNNGTLVVQSLHGVFKVKDTTTLQQHLVDGRDMIIIRMPKDFPPFPQKLKFREPQREERICLVTTNFQTKSMSSMVSDTSCTFPSGDGIFWKHWIQTKDGQCGSPLVSTRDGFIVGIHSASNFTNTNNYFTSVPKNFMELLTNQEAQQWVSGWRLNADSVLWGGHKVFMVKPEEPFQPVKEATQL [T30Y]: the “area with substrate EALYFQS” value was 0.1, the “area with substrate ECLYFQS” value is 0.115, the “area with substrate EDLYFQS” value is 0.129 and the “area with substrate EELYFQS” value turned out to be 0.118. The “area with substrate EGLYFQS” value is 0.0933, the “area with substrate EHLYFQS” value was 0.104, the “area with substrate EILYFQS” value is 0.0926 and the “area with substrate ELLYFQS” value was found to be 0.0765. In addition, the “area with substrate EMLYFQS” value worked out at 0.097, the “area with substrate EPLYFQS” value was found to be 0.123, the “area with substrate EQLYFQS” value amounted to 0.099 and the “area with substrate ESLYFQS” value was 0.0896. Further, the “area with substrate EVLYFQS” value turned out to be 0.1, the “area with substrate EWLYFQS” value amounted to 0.103 and the “area with substrate EYLYFQS” value was 0.0951.
